# Whole data set: some 110,000 compounds, median “z-score” near -0.1, cut for the highest 2% near 2. Some of the results follow.
# Molecular target: Metabotropic glutamate receptor 8 (Rattus norvegicus) (UniProt P70579)
# Experiment: rat mGluR8 modulators via GIRK flux, primary screen, cell-based, thallium flux, HTS (AID 488969)
# Conditions: HEK293 rat mGluR8, GIRK (G protein-gated inwardly rectifying potassium channel) thallium flux, FluoZin2; at 10 µM; stronger effect = higher value; submaximal glutamate (EC20) added with thallium
# Chain of UniProt P70579 (P70579 whole entry, looked up): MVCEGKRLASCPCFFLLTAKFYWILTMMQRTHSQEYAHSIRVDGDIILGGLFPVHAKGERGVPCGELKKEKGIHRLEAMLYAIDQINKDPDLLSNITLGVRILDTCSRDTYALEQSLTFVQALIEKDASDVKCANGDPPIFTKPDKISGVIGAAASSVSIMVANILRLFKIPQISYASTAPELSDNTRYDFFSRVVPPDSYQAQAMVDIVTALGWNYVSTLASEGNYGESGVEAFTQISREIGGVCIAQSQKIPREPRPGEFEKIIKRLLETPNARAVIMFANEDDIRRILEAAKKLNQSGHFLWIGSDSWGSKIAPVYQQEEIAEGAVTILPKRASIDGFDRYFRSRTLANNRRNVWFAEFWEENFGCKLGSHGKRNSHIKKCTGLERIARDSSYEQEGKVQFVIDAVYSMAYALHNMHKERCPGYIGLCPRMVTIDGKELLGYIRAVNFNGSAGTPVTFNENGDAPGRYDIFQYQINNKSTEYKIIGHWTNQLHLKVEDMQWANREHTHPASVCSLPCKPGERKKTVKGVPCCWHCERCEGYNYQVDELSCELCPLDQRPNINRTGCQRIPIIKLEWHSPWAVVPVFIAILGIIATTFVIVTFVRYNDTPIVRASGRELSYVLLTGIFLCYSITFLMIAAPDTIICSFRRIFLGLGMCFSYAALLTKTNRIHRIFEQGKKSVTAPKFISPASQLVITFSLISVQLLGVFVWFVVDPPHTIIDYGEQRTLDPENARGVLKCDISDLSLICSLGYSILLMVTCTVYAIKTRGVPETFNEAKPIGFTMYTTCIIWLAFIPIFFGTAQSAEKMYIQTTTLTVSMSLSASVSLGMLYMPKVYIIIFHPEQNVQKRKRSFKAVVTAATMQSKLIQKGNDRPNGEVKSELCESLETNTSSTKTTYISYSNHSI
row,Structure (SMILES),z-score
1,CC(C)Oc1ccccc1C1CC(=O)Nc2c1c(=O)n(C)c(=O)n2C (stereo not given),0.036
2,Cc1cc(C)n2c(SCC(=O)NCc3ccco3)nnc2n1,-0.0687
3,CC(=O)c1ccc(NC(=O)Cn2nc(C)cc2C)cc1,0.0345
4,O=C(NC1CCCCC1)c1ccc(S(=O)(=O)N2CCOCC2)cc1,0.588
5,O=S(=O)(NCc1ccccc1)c1ccc(S(=O)(=O)N(Cc2ccccn2)C2CCCC2)cc1,0.0498
6,CC(C)CC(=O)Nc1cccc(-c2csc(-c3ccccc3)n2)c1,0.159
7,CC(C)CCNC(=O)NC(=O)COC(=O)C1=COCCO1,-0.0887
8,CCOCCCNCc1ccc(Cl)cc1,-0.338
9,COc1ccc2[nH]c(O)c(NC(C)=O)c2c1,0.0483
10,Cc1c(NC(=O)CSc2nncc3ccccc23)c(=O)n(-c2ccccc2)n1C,-0.206
11,CC(C)Cn1c(SCC(=O)N2CCc3ccccc3C2)nc2cc(Cl)ccc2c1=O,0.543
12,O=[N+]([O-])c1ccc(CSc2nnc(-c3cnccn3)o2)cc1,-0.0463
13,Cc1cc(N2C(=O)C(=O)/C(=C(/O)c3ccc(F)cc3)C2c2ccc(Cl)cc2)no1 (stereo not given),-2.22
14,Cc1cccc(N2CCN(C(=O)C3CCN(S(=O)(=O)c4cccc5cccnc45)CC3)CC2C)c1 (stereo not given),-0.277
15,COc1ccc(C2C(C#N)=C(C)NC3=C2S(=O)(=O)c2ccccc23)cc1 (stereo not given),-0.505
16,CCOc1cc(S(=O)(=O)NCc2ccc(OC)cc2)c(OCC)cc1-n1cnnn1,-0.123
17,Cc1ccc(NC(=O)N2CCC(C(=O)NCCC3=CCCCC3)CC2)cc1,0.266
18,CCn1c(NCc2ccco2)nc2c1c(=O)n(C)c(=O)n2C,0.397
19,CC(=O)N1CCc2cc(C(=O)CN3CCN(C(=O)c4ccco4)CC3)ccc21,0.0857
20,Fc1ccccc1CN1CCCCCCC1,-0.0629
21,O=C(Nc1ccc(S(=O)(=O)NC2CCCCC2)cc1)c1ccc(Br)o1,-0.321
22,COc1ccc(N2CCN(c3c(S(=O)(=O)c4ccccc4)cnc4ccc(OC)cc34)CC2)cc1,-0.154
23,COc1ccccc1C(=O)Nc1ccc(Oc2nnc(-c3ccc(C)cc3)c3ccccc23)cc1,-0.186
24,O=C(Cc1ccccc1)N/N=C/C=C/c1cccc([N+](=O)[O-])c1,-0.0919

row,Structure (SMILES),z-score
1,O=C(CCl)NNc1cccc(Cl)n1,0.0611
2,CNc1nc2[nH]c(=O)c3c(c2s1)OC(N)=C(C#N)C3c1ccccc1 (stereo not given),-0.149
3,CCCCCC(=O)N1CC2(CC(c3cccc(NC(=O)c4ccccc4)c3)=NO2)C[C@@H]1C(N)=O (stereo not given in full),-0.104
4,Cn1c(CSCc2ccc(Cl)cc2)nnc1SCC(=O)Nc1nccs1,-0.542
5,O=[N+]([O-])c1ccc(/C=N/NC(=S)Nc2ccccc2C(F)(F)F)o1,1.06
6,CCCCCn1c(=O)c(-c2nc3ccccc3c(=O)[nH]2)c(O)c2ccccc21,0.548
7,O=c1n(Cc2ccccc2F)c2ccccc2n1Cc1ccccc1F,-0.282
8,COc1ccc(CNC2CCCCC2)cc1,0.437
9,CC1CN(C(=O)CCN2C(=O)c3ccccc3C2=O)CC(C)O1 (stereo not given),0.244
10,CC(C)C(NC(=O)c1ccc(Cl)cc1)C(=O)O (stereo not given),1.93
11,Cc1ccccc1S(=O)(=O)c1c(C)cc(C)n(C(C)C)c1=O,-0.131
12,Cc1ccccc1NC(=O)CSc1nc2ccccc2o1,-0.058
13,Cc1c(Cl)cccc1NC(=O)CC1SC(=NCC2CCCO2)NC1=O (stereo not given),-0.244
14,Cc1cc(C)nc(SCC(=O)Nc2ccccc2[N+](=O)[O-])n1,-0.0823
15,CN=C(Nc1ccc2c(c1)OCO2)SC1CC(=O)N(c2ccccc2)C1=O (stereo not given),-0.0948
16,CC(C)(C)NC(=O)c1cc([N+](=O)[O-])ccc1N1CCCCC1,-0.12
17,Cc1nnc(NC(=O)CC(CN(C)S(=O)(=O)c2ccccc2)c2ccccc2)s1 (stereo not given),-0.403
18,COc1cc(-c2nnc(SC/C=C/c3ccccc3)n2N)cc(OC)c1OC,-0.458
19,CCc1ccccc1NC(=O)CSc1nnc(Cn2cnc3ccccc32)o1,-0.219
20,COc1ccc2c(c1)SC(C)CC2=O (stereo not given),-0.303
21,COC(=O)C1CCN(C(=O)COC(=O)Cc2c[nH]c3ccccc23)CC1,-0.393
22,CC(C)C(NS(=O)(=O)c1cccc2nsnc12)C(=O)N1CCn2c1nc1ccccc12 (stereo not given),-0.153
23,CCOC(=O)Cc1csc(/C(=N/O)C(N)=O)n1,0.267
24,CC(=O)Nc1nc2ccccc2n1Cc1ccccc1C,-0.289

row,Structure (SMILES),z-score
1,CCCCN(C)C(=O)c1ccc(CS(=O)(=O)c2ccccc2C)o1,0.105
2,COc1ccc(NC(=O)C2CCN(Cc3cnn(-c4ccccc4)c3-n3cccc3)CC2)cc1OC,-0.402
3,COc1ccc(OCCNc2cc(Cl)ccc2[N+](=O)[O-])cc1,-0.0226
4,CS/C(=N\S(=O)(=O)c1cccs1)Nc1ccc(Cl)cc1,-0.467
5,Cc1c(Cl)cnc(NC(=O)COC(=O)CCS(=O)(=O)c2ccccc2)c1Cl,-0.05
6,Cc1cc(C(=O)COC(=O)Cn2cnc3c2c(=O)n(C)c(=O)n3C)c(C)n1C,-0.445
7,CSCC[C@H](NC(=O)C1CCN(S(=O)(=O)c2ccc(C)cc2)CC1)C(=O)NCc1ccco1,-0.0105
8,Cc1ccc2[nH]c(-c3cccc(N)c3)cc2c1,-0.0452
9,Cc1ccc(OCC(=O)N(Cc2ccccc2)C(C)C)c([N+](=O)[O-])n1,-0.134
10,CCOC(=O)/C=C1\SCC(=O)N1CC(=O)Nc1ccc(OC)c(OC)c1,-0.0598
11,Cc1ccc(NC(=O)ON=C2CCCC2)cc1,-0.0815
12,Cc1cc(NCC(C)C)n2ncnc2n1,0.113
13,COc1ccc(-c2nnn(CC(=O)N(C3CCCCC3)C(C)C(=O)NC3CCCC3)n2)cc1OC (stereo not given),1.3
14,CCCCn1c(SCC(=O)NCc2ccco2)nnc1-c1ccoc1C,-0.872
15,O=C(Nc1ccccc1OC(F)F)C1CCCN1C(=O)c1cccs1 (stereo not given),-0.637
16,CCCc1nc2ccccc2c(C(=O)OCC(=O)Nc2c(C)n(C)n(-c3ccccc3)c2=O)c1CC,-0.454
17,COCCn1c(SCc2nc3sc(C(=O)OC)c(C)c3c(=O)[nH]2)nc2ccccc21,0.877
18,CCOC(=O)c1cnc2nc(NCc3ccc(OC)c(OC)c3)[nH]n2c1=O,-0.118
19,CCOCCc1nnc(NC(=O)Cc2ccccc2)s1,-0.126
20,COC(=O)C(NNc1ccccc1)(NC(=O)c1ccccc1F)C(F)(F)F (stereo not given),0.148
21,O=c1cc(NS(=O)(=O)c2ccccc2)nc(SCc2ccccc2Cl)[nH]1,0.325
22,CCc1ccc(CC)c(S(=O)(=O)Nc2ccc(O)c(C(=O)O)c2)c1,0.441

# From PubChem BioAssay AID488969 (Vanderbilt High Throughput Screening Facility, 2010)
